From the RNAGym collection of RNA variant scans (doi:10.1101/gad.245936.114) come the findings set out here.

The chains are these.
B1: tRNA (parent)
chain: CUCUCGGUAGCCAAGUUGGUUUAAGGCGCAAGACUUUAAUUUAUCACUACGAAAUCUUGAGAUCGGGCGUUCGACUCGCCCCCGGGAGAUUUUUUCCUCGAGCAA

Variants at the background level are over-represented here.

Variants of B1 are the subject of the data set. As to the kind of experiment: nonsense suppression (GFP-seq) (ratio to wild type); higher = more function; SUP4oc tRNA, yeast GFP reporter sort-seq. The method in brief: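 Yeast were grown in raffinose/galactose medium with 80 mg/L adenine, each strain bearing a genome-integrated ochre-suppressor tRNA variant from a ~3% random-mutation library, a galactose-driven GFP ochre reporter, and RFP. After sorting into GFP/RFP bins, every bin was sequenced on an Illumina platform at phred ≥30. The GFPSEQ value, a measure of nonsense suppression, is the weighted bin median GFP/RFP relative to the unmutated parent tRNA, using each variant's estimated cell share per bin as the weight. Only variants with ≥100 reads and ≥30 cells were included.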
Turning to U17C G88C, the nonsense suppression was at most 0.026.
As for U57C U70A G85C G86U, the figure is at most 0.026; as for A54U G61U U76A, at most 0.026.
The same measure for U2C C5A C75U C83A: at most 0.026; for C12A U57A G65A A89U: at most 0.026; for G26A A30C U71G: at most 0.026.
As for A23G A62C C72A C80U, the figure is at most 0.026; as for C77U, at most 0.026.
With C77G, the nonsense suppression was at most 0.026.
As for G25C A31C G73A, the figure is at most 0.026.
The same measure for G15A G32U A33G C80A: at most 0.026.
The same measure for G6A G18U G69A: at most 0.026; for A13G U57A: at most 0.026; for C29A G73C G84U: at most 0.026.
For the variant C3G G7U U8G U17G C79A, the nonsense suppression was at most 0.026.
As for U2C C11U, the figure is at most 0.026; as for C11A A31G C34G, at most 0.026.
For A14U G19U G61C, the nonsense suppression is at most 0.026.
The same measure for G15U C34U G61A G85C: at most 0.026.
For U4G G26U G84A, the nonsense suppression was at most 0.026.
On to G26U C64U G86C, for which the nonsense suppression was at most 0.026.
For the variant A13C C34G G59U C77G, the nonsense suppression is at most 0.026.
The same measure for U22C A31U U70C: at most 0.026; for A24G C82U G88C: at most 0.026; for U21C A31G U76C G85A G88C: at most 0.026.
The same measure for C5G C27G: at most 0.026; for U4C U35G U63G C68U: at most 0.026.
As for C3U G18A C56G G65C, the figure is at most 0.026; as for G19A U35G U76C, at most 0.026; as for C11G A13U G65U, at most 0.026.
As for U2A A9U A54C C56U G61A, the nonsense suppression was at most 0.026.
The same measure for C3G U20A: at most 0.026; for U4G U8G C11U: at most 0.026; for U4A C11U A33G G86U A87C: at most 0.026.
In the case of C3A C64G U76G, the nonsense suppression is at most 0.026.
The same measure for G73A G86C: at most 0.026.
The same measure for U2A U35G: at most 0.026; for C29A G84A G88C: at most 0.026; for G78C C80U: at most 0.026.
The same measure for G28A U63C C64U G78U G85A: at most 0.026; for A13G A24U C56U A60U: at most 0.026.
For the variant C34G G78U, the nonsense suppression was at most 0.026.
In the case of U8G G67C G85C, the nonsense suppression is at most 0.026.
The same measure for C3G G25C G28U C79U: at most 0.026.
The same measure for G7C G10U U20G G25U G32U: at most 0.026.
As for A23G U35A, the nonsense suppression was at most 0.026.
As for C3A G7C U8A C11G, the figure is at most 0.026; as for A14U G86U, at most 0.026.
The same measure for U16C G32A U57C G66A G84A: at most 0.026.
The same measure for U8C U63A: 0.0619.
As for G65U U70A G73A A89U, the nonsense suppression was at most 0.026.
Take C1U A30C C83U: the nonsense suppression is at most 0.026.
Turning to G6A A9G C29G U70A, the nonsense suppression was at most 0.026.
As for G88A A89G, the figure is at most 0.026.
As for C1G A13C U58A C72U U76G, the figure is at most 0.026; as for A23G G28U, at most 0.026.
For A23G C68G A74G, the nonsense suppression is at most 0.026.
As for A9G G18C U63A G88C, the figure is at most 0.026; as for C81G G88C, at most 0.026.
Regarding U2C C3U A14C, the nonsense suppression is at most 0.026.
The same measure for G32C A33G G69C: at most 0.026; for A30U C82G: at most 0.026.
As for C80U, the figure is 0.697; as for U2G A24U G61U A74C C81A, at most 0.026.
As for C12A C68A, the nonsense suppression was at most 0.026.
As for U20G G32A U35G, the figure is at most 0.026; as for C1G U55C, 0.0398; as for C5G U8C G19C G66A, at most 0.026.
Regarding A23G A60C G86U, the nonsense suppression was at most 0.026.
As for A13G G67A G85U A87G, the figure is at most 0.026; as for A24C U63A A87U, at most 0.026.
As for A24C G59U, the nonsense suppression was at most 0.026.
As for C3G C83G A89C, the figure is at most 0.026.
The same measure for G6A G32U G65U G66C G67C C79U: at most 0.026; for C1G A74U G86A: at most 0.026.
The same measure for U8G A9G C11A A24G: at most 0.026; for A9C C56U: at most 0.026; for A9U A89C: at most 0.026.
In the case of C5G G32U A62G, the nonsense suppression is at most 0.026.
The same measure for G25A C77G C82U A89C: at most 0.026; for G7U U63A G88U: at most 0.026; for C1U A87U: at most 0.026.
Regarding A9G C27G, the nonsense suppression is at most 0.026.
For G6C C27U, the nonsense suppression is at most 0.026.
As for G32A C79G C82G, the figure is at most 0.026; as for A13G G67C C83G, at most 0.026; as for U21A U70C C79G, at most 0.026.
As for C12U A30U G61U, the figure is at most 0.026; as for A9C G10A U16C, at most 0.026; as for C5A A14C G61A C83G, at most 0.026.
As for U20A G28U G84C, the figure is at most 0.026; as for A31U G78C G88U, at most 0.026; as for C5U G6U A62U, at most 0.026.
As to A23C G78A C79A, the nonsense suppression was at most 0.026.
As for C5G C11A A30G, the figure is at most 0.026; as for C11U A14C U17G C83A, at most 0.026.
The same measure for G19C A24G C27G C80U G85C: at most 0.026; for C5U G7U G19C: at most 0.026; for A9G G32C: at most 0.026.
Turning to C11G U76G, the nonsense suppression was at most 0.026.
The same measure for C12U G32U C77A C79G: at most 0.026; for C5U A54G G84C G86A: at most 0.026; for A9U G18C: at most 0.026.
Regarding G7A C75A, the nonsense suppression is at most 0.026.
Turning to U4C U8A, the nonsense suppression turned out to be 0.0441.
For U55A C64A U71C, the nonsense suppression was at most 0.026.
As for U4C C11U, the figure is 0.109.
The same measure for G19U A23C U58G: at most 0.026.
For G10U G15C G59A C80A, the nonsense suppression was at most 0.026.
As for A23U G73C C83G, the figure is at most 0.026.
The same measure for A13U A23U: 0.0855; for U4G G66A: 0.0774.
As for A30U G61C A62U, the figure is at most 0.026; as for A9G U57A U58C, at most 0.026; as for C5U G6U C12G A23U G88U, at most 0.026.
Turning to U2G, the nonsense suppression was at most 0.026.
As to C3G C64G G86A, the nonsense suppression was at most 0.026.
The same measure for G59A G85C: at most 0.026; for U21G A30C A31G G32C A89U: at most 0.026.
For the variant U8C G25U A60U, the nonsense suppression is at most 0.026.
As for C11A U76G G88C, the figure is at most 0.026; as for A13G G18U, at most 0.026.
For the variant C29A U76C, the nonsense suppression was at most 0.026.
As for A14G U16C U63C G65U, the figure is at most 0.026; as for G32C G84C, at most 0.026; as for C27G A62U C80A, at most 0.026.
U8G U22C G88A: the nonsense suppression was at most 0.026.
The same measure for G25C A33U U71A C79A A89U: at most 0.026.
As for A30U A60C, the figure is at most 0.026.
The same measure for G15A G73C: at most 0.026.
Take G18U U57G: the nonsense suppression was at most 0.026.
Consider A54U A60C U71G G85U, for which the nonsense suppression was at most 0.026.
The same measure for G32C C80G: at most 0.026; for U21A A60U C83G: at most 0.026.
The same measure for U2G U4C A23C: at most 0.026; for G65C A89U: at most 0.026.
The same measure for G19U A60U G73U: at most 0.026.
Consider G18U G26U G86A G88C, for which the nonsense suppression was at most 0.026.
The same measure for C1G U4C U20G U57C U58A C64U: at most 0.026.
The same measure for U2A G25U C27U A62U: at most 0.026; for C11G A23C U58G A74G: at most 0.026; for U2G G10U U63C G66A C72U A87C: at most 0.026.
As for G26U C34A A87U, the figure is at most 0.026.
U21G A24C: the nonsense suppression is 0.493.
The same measure for G25A G28U G32C A74C: at most 0.026; for U21C G32U U58C: at most 0.026.
As for A9U A13G U22G A31C U63C C68U A74U G78U C79A C80A, the figure is at most 0.026.
The same measure for A23C G59C G61A: at most 0.026; for G10A C12U C34A A74U: at most 0.026; for C29A A33G G61C G88U: at most 0.026.
Regarding C64A U70A, the nonsense suppression was at most 0.026.
As for A24C C34G, the figure is at most 0.026; as for U16A C27U U57A, at most 0.026; as for C81A G86A G88C, at most 0.026.
As for U35A G78A, the figure is at most 0.026.
Regarding U17C G84A, the nonsense suppression was 0.048.
As for G18A A23G A31U G32U A89G, the figure is at most 0.026.
Take C3U U4A C12A A13U U71A: the nonsense suppression was at most 0.026.
As for C1A A13C U21G G25U C29U G65A G85U, the nonsense suppression is at most 0.026.
With U21A A24G C68U A89U, the nonsense suppression is at most 0.026.
The same measure for U16G C34G G84A: at most 0.026.
The same measure for U76G G78A C83U: at most 0.026.
As for A33G C56U G78A C81U G84A, the figure is at most 0.026; as for A31G U63G, 0.0741.
On to U4G A14G U20G, for which the nonsense suppression was at most 0.026.
As for U21G A60U, the figure is 0.96.
As for A33G U55A A62U, the figure is at most 0.026.
